Test results reported in PubChem BioAssay AID504332 (National Center for Advancing Translational Sciences (NCATS), 2011).
Several values for one entry are separate records, joined by “and”; a condition that tells them apart may be missing. Equal entries are not always repeated. Screen size: about 350,000 compounds; about 31,000 (8.9%) were called active. This list was built around the results that the source calls inconclusive (neither active nor inactive); the mix of calls is not that of the screen. Calls follow the shape of the dose curve; as a rule, active = well fitted inhibition curve with a large enough effect; inconclusive = small, poorly fitted or top-dose-only effect; inactive = no such curve, though single readings can be large or run the other way. Potencies of inconclusive entries are doubtful fits and often do not repeat.

Target: Histone-lysine N-methyltransferase EHMT2 (Homo sapiens) (UniProt Q96KQ7)
Test: qHTS Assay for Inhibitors of Histone Lysine Methyltransferase G9a; also: nearly all actives have a fitted effect of over 75% in size
Settings: G9a H3K9 monomethylation, AlphaScreen, 2 h; activity, negative = inhibition: at 59 µM (top of the series) unless noted
In short: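 G9a (20 nM) preincubated 15 min RT with compounds, then 500 nM biotinylated H3K9 peptide and 20 uM SAM added; 2 h RT reaction. Monomethyl-H3K9 product detected by AlphaScreen with anti-H3K9me1 antibody, streptavidin donor and anti-rabbit IgG acceptor beads.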
% is scaled to controls: 0 for no effect and ±100 for the full control effect; potency is read from the fitted curve at half-maximal effect; tags tell the direction and shape of the fitted curve.

Chain of UniProt Q96KQ7 (Q96KQ7 whole entry, looked up): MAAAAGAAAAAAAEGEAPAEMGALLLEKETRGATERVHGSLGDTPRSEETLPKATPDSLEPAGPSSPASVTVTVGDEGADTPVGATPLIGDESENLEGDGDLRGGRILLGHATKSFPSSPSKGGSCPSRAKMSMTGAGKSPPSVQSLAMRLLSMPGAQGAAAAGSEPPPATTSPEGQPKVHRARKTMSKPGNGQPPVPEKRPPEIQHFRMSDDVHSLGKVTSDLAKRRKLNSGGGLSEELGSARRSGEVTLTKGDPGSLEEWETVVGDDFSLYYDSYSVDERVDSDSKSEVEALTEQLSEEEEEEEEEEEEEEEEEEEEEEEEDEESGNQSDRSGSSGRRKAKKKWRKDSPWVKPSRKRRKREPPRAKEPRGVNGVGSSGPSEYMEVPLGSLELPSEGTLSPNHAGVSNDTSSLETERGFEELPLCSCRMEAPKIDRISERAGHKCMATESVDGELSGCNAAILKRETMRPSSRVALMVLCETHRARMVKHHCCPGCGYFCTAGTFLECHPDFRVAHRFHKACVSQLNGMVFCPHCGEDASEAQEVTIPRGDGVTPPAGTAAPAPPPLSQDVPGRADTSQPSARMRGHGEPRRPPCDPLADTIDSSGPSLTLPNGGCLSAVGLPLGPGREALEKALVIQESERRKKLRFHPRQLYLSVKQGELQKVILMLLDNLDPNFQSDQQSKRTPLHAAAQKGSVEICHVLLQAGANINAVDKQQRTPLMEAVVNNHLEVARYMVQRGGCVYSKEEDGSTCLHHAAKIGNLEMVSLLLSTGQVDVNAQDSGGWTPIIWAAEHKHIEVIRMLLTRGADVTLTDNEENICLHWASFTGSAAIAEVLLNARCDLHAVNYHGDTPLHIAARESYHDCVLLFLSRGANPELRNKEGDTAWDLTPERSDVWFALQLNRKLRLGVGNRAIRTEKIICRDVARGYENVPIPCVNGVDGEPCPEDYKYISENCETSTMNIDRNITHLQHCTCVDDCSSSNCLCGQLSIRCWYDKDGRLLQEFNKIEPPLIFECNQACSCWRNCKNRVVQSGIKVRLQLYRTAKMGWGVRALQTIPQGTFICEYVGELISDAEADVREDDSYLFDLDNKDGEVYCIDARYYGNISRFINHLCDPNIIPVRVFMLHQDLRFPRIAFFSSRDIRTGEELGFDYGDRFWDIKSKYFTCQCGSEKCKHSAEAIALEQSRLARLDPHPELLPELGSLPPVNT

SMILES | Potency | activity, negative = inhibition
Cc1ccc(-c2nc(CS(=O)(=O)CC(=O)NCCCN3CCN(C)CC3)c(C)o2)cc1 | inconclusive: 39.8 µM [inhibitor, partial curve] | 
CC(/C=C/c1ccco1)=N\NC(=O)C(O)c1ccccc1 (stereo unspecified) | inconclusive: 5.62 µM [inhibitor, single point] | 
CNC(=O)c1ccc(NC(=O)C2CCN(c3ncnc4sc(C)c(C)c34)CC2)cc1 |  | inactive: 38.5% [at 102 µM]
COc1ccc(C)cc1NC(=O)CSc1nc(=O)n(Cc2ccccn2)c2c1CCC2 | inconclusive: 3.16 µM [inhibitor, single point] | 
N#Cc1ccc(C(=O)OCC(=O)NC2CCCC2)cc1 | active: 44.7 µM | 
CCN1C(=O)C(Cc2nc3ccccc3c(=O)n2-c2ccccc2)c2cc(Br)ccc21 (stereo unspecified) | inconclusive: 22.4 µM [inhibitor, partial curve, poor fit] | 
O=C(O)[C@H]1CCCC[C@H]1C(=O)Nc1ccc(Nc2ccccc2)cc1 | active: 8.91 µM | 
Cc1ccc(S/C(=N\S(=O)(=O)c2ccc(Cl)cc2)c2ccccc2)cc1 | inconclusive: 8.91 µM [inhibitor, single point] | 
CN(C)CCCN(Cc1ccccc1)C(=S)NCc1ccccc1 | inconclusive: 70.8 µM [inhibitor, single point] | 
C/C(=N\O)C(C)NC(=O)c1ccccc1 (stereo unspecified) |  | inactive: -10.1%
CCN(CC)c1ccc(/C=N/NC(=O)c2ccc3nc[nH]c3c2)c(O)c1 | inconclusive: 79.4 µM [inhibitor, single point] | 
Cc1cc(OC(=O)c2ccc(S(=O)(=O)N(C)C)cc2)c([N+](=O)[O-])c(=O)[nH]1 | inconclusive: 0.794 µM [inhibitor, full curve, poor fit] | 
COc1ccccc1C(=O)NC(CCSC)C(=O)NCc1ccccn1 (stereo unspecified) | inconclusive: 44.7 µM [inhibitor, partial curve] | 
Cc1ccc(NC(=O)CSCC(=O)NCc2ccco2)cc1 | inconclusive: 39.8 µM [inhibitor, partial curve] | 
O=C(CC1Sc2ccccc2NC1=O)Nc1cccc(C(=O)O)c1 (stereo unspecified) | active: 39.8 µM | 
O=C(Nc1nc(-c2ccccn2)cs1)c1ccc(Cl)s1 | inconclusive: 100 µM [inhibitor, single point] | 
O=C(Cc1ccc([N+](=O)[O-])cc1)N/N=C/c1ccc([N+](=O)[O-])o1 | inconclusive: 50.1 µM [inhibitor, partial curve, poor fit] | 
CCc1cccc(OCC(=O)Nc2ccccc2N2CCCC2)c1 |  | inactive: 5.16% [at 0.501 µM]
COc1ccc(CNc2oc(-c3ccc(COc4ccc(OC)cc4)o3)nc2C#N)cc1 | inconclusive: 10 µM [inhibitor, partial curve] | 
COc1ccccc1/C=C/C(=O)NC(=S)N1CCN(C)CC1 | inconclusive: 70.8 µM [inhibitor, partial curve, poor fit] | 
Cc1ccc(NC(=O)C[n+]2ccn(C3=C([O-])c4ccccc4C3=O)c2)cc1 |  | inactive: 0.401% [at 102 µM]
CC(C)OC(=O)n1c(=S)oc2ccccc21 | inconclusive: 12.6 µM [inhibitor, partial curve, poor fit] | 
Cc1cccc(C)c1NC(=O)CN1C(=O)c2cccc3cccc1c23 |  | inactive: 3.09%
Fc1ccc(F)c(C2=NNC(=Nc3ccccc3F)SC2)c1 |  | inactive: 9.5%

SMILES | Potency | activity, negative = inhibition
COCCNC(=O)C(c1cccs1)N(C(=O)Cn1nnc2ccccc21)c1ccccc1 (stereo unspecified) | inconclusive: 3.55 µM [inhibitor, partial curve, poor fit] | 
COc1ccc(N(C(=O)c2cccnc2)S(=O)(=O)c2cc(OC)ccc2OC)cc1 |  | inactive: 0.446% [at 102 µM]
Cc1oc2c(c(C)cc3oc(=O)c(CC(=O)NCc4ccc(F)cc4)c(C)c32)c1C |  | inactive: 2.93%
O=C(Nc1ccc(Br)cc1)c1ccccc1Br | inconclusive: 35.5 µM [inhibitor, partial curve, poor fit] | 
COCCNCC(=O)Nc1ccc(C)c(S(=O)(=O)N2CCCCC2)c1 | active: 8.91 µM | 
CN1CCN(C(=O)C2=C[C@@H](c3ccccc3)C[C@@H](OCCCCO)O2)CC1 |  | inconclusive: -55.3% [inhibitor]
O=C(N/N=C/c1ccccc1)C(O)c1ccccc1 (stereo unspecified) |  | inactive: 0.17% [at 102 µM]
COC(=O)c1cccc(NS(=O)(=O)c2cccs2)c1C |  | inactive: 11.5%
CN(CC(=O)Nc1ccc(S(=O)(=O)N2CCCC2)cc1)CC(=O)Nc1cccc(F)c1 | inconclusive: 89.1 µM [inhibitor, partial curve, poor fit] | 
COc1ccc(Oc2nc(-c3ccccn3)ncc2OC)cc1 | inconclusive: 89.1 µM [inhibitor, single point] | 
CCOC(=O)c1ccc(N2C(=O)c3n[nH]c(C)c3C2c2ccc(O)cc2)cc1 (stereo unspecified) | inconclusive: 89.1 µM [inhibitor, partial curve, poor fit] | 
CCOc1ccc(N2C(=O)CC(N3CCN(C4CCc5ccccc5C4)CC3)C2=O)cc1 (stereo unspecified) |  | inactive: -1.98% [at 102 µM]
CCOC(=O)C1(Cc2cccc(F)c2)CCN(C2CCOCC2)CC1 |  | inactive: 4.86% [at 102 µM]
COc1ccc(C2CC(c3c(O)cc(C)oc3=O)=NCCS2)c(OC)c1 (stereo unspecified) | inconclusive: 39.8 µM [inhibitor, single point] | 
Cc1ccc(N(C(=O)CCl)C(C(=O)NC2CCCCC2)c2cccnc2)cc1C (stereo unspecified) |  | inactive: 1.25%
CN(C)c1ccc(C(=O)/C=C/c2ccco2)cc1 | active: 12.6 µM | 
OCCNc1c2ccccc2nc2ccccc12 | inconclusive: 89.1 µM [inhibitor, partial curve, poor fit] | 
O=C(CSc1nnc(-c2ccccc2F)n1C1CC1)Nc1cccnc1Cl | inconclusive: 0.158 µM [inhibitor, full curve, poor fit] | 
COc1ccccc1NC(=O)c1cc(C)oc1C |  | inactive: -19.8% [at 102 µM]
CC(C)CCN(C(=O)C1CCCC1)c1c(N)n(Cc2ccccc2)c(=O)[nH]c1=O | inconclusive: 1.12 µM [inhibitor, single point] | 
Cc1cc(C)n(C(=O)COc2ccc([N+](=O)[O-])cc2)n1 | inconclusive: 0.355 µM [inhibitor, partial curve, poor fit] | 
O=C(CN1CCN(CCN2C(=O)c3cccc4cccc(c34)C2=O)CC1)c1ccc(Cl)cc1 | active: 7.94 µM | 
O=C(CN1CCOCC1)NNC(=O)c1ccc([N+](=O)[O-])cc1 | active: 50.1 µM | 
O=C(Nc1ccc(CN2CCOCC2)cc1)c1cccc(-c2cc3ccccc3oc2=O)c1 | inconclusive: 56.2 µM [inhibitor, partial curve, poor fit] | 

SMILES | Potency | activity, negative = inhibition
O=C(NCC(=O)N1CCCC1C(=O)O)OC1CCCCC1 (stereo unspecified) | inconclusive: 63.1 µM [inhibitor, partial curve, poor fit] | 
CCOC(=O)C1(C)C=C(Nc2ccc(C(=O)O)cc2)C(=O)N1c1ccc(C(=O)O)cc1 (stereo unspecified) |  | inactive: -39.2%
CCOC(=O)Cn1nc(C)c(NC(=O)c2cccc([N+](=O)[O-])c2)c1C | inconclusive: 35.5 µM [inhibitor, full curve] | 
Cc1ccc(NC(=O)/C=C/c2cccs2)c([N+](=O)[O-])c1 | inconclusive: 35.5 µM [inhibitor, partial curve, poor fit] | 
Cc1ccc2c(=O)cc(C(=O)NC3CCS(=O)(=O)C3)oc2c1 (stereo unspecified) | inconclusive: 89.1 µM [inhibitor, single point] | 
COc1ccccc1NC(=O)C(C)OC(=O)CCCOc1ccccc1 (stereo unspecified) |  | inactive: 62.1% [at 102 µM]
CCc1c(C)nc2cc(-c3ccc(OC)c(OC)c3)nn2c1N1CCC(C)CC1 |  | inactive: 16.3% [at 102 µM]
CNc1nc(-c2ccc(Cl)cc2)cs1 | inconclusive: 39.8 µM [inhibitor, single point] | 
Fc1ccc(N/N=C/C=C/c2ccccc2)c(F)c1 | inconclusive: 39.8 µM [inhibitor, single point] | 
CCN(CC)CCNC(=O)Cn1nc(-c2ccccc2)c2ccccc2c1=O |  | inactive: -10.7% [at 102 µM]
O=c1c[n+]([O-])c2ccccc2n1OCc1ccccn1 | inconclusive: 25.1 µM [inhibitor, single point] | 
O=C(O)c1ccn(Cn2cnc3ccccc32)n1 | inconclusive: 56.2 µM [inhibitor, partial curve, poor fit] | 
O=C(OCCCC(=O)N1CCOCC1)c1ccccc1 |  | inactive: 5.3% [at 102 µM]
COc1ccc(CCN2C(=O)CC(NNc3ccc([N+](=O)[O-])cc3)C2=O)cc1OC (stereo unspecified) | active: 14.1 µM | 
O=C(COC(=O)CSc1nnc(-c2ccc(Cl)cc2)o1)Nc1cc(Cl)cc(Cl)c1 | inconclusive: 79.4 µM [inhibitor, single point] | 
Cc1ccc(-c2csc3nnc(SCC(=O)N4CCN(Cc5ccccc5)CC4)n23)cc1 | active: 25.1 µM | 
COC(=O)[C@@H]1CCCN1Cc1nc(Cc2ccc(OC)c(OC)c2)no1 |  | inactive: -21.1% [at 102 µM]
CCN(CC)S(=O)(=O)c1ccc2c(c1)c(=O)c(C(=O)NCCCN(C)c1ccccc1)cn2C | active: 10 µM | 
COc1ccc(S(=O)(=O)N2CCCCCC2)cc1C(=O)N1CCN(c2ccccc2O)CC1 |  | inactive: 6.03% [at 0.501 µM]
COc1ccc(C2=C(CN(C)C)C(c3ccccc3)c3ccccc3O2)cc1 (stereo unspecified) | inconclusive: 39.8 µM [inhibitor, single point] and inconclusive: 22.4 µM [inhibitor, partial curve, poor fit] | 
CCC(=O)c1ccc(OCC(=O)OCC(=O)c2cc(C)n(C3CC3)c2C)cc1 | inconclusive: 39.8 µM [inhibitor, partial curve, poor fit] | 
Cc1cccc(NC(=O)C2CCCN(c3nc4ccccc4s3)C2)c1C (stereo unspecified) |  | inactive: 1.71%
OC(COCc1ccco1)CN1CCN(c2ccccc2)CC1 (stereo unspecified) | inconclusive: 25.1 µM [inhibitor, single point] | 
